In US20250281631A1, “ANTIBODY-DRUG CONJUGATES AND PREPARATION METHODS AND USE THEREOF” (SICHUAN KELUN-BIOTECH BIOPHARMACEUTICAL CO., LTD, priority 2022, published 2025):

B1: 22B6: fully human anti-HER3 antibody; heavy chain SEQ ID NO: 17, light chain SEQ ID NO: 18 (antibody)
heavy: EVHLVESGGGVVQPGRSLRLSCATSGFTFRSYGMHWVRQAPGKGLEWVAVIWYDGSNKYYADSVKGRFTISRDISKNTLYLQMNSLTAEDTAVYYCARYYYDSNGYYDAFDIWGQGTMVTVSSASTKGPSVFPLAPSSKSTSGGTAALGCLVKDYFPEPVTVSWNSGALTSGVHTFPAVLQSSGLYSLSSVVTVPSSSLGTQTYICNVNHKPSNTKVDKRV[in this place human IgG1 Fc]
light: DIQLTQSPSFLSASVGDRVTITCRASQGISNYLAWYQQKPGKAPKLLIFAASTLQSGVPSRFSGSGSGAEFTLTISSLEPEDFATYYCQQLNSYPITFGQGTRLEIKRTVAAPSVFIFPPSDEQLKSGTASVVCLLNNFYPREAKVQWKVDNALQSGNSQESVTEQDSKDSTYSLSSTLTLSKADYEKHKVYACEVTHQGLSSPVTKSFNRGEC
modifications: heavy chain of 22B6D2-hIgG1; light chain of 22B6D2-hIgG1
B2: 22B6-A-01: ADC of antibody 22B6D2-hIgG1 conjugated to drug-linker A-01, DAR 7.93 (conjugate)
heavy: B1 heavy
light: B1 light
B3: 22B6-B-01: ADC of antibody 22B6D2-hIgG1 conjugated to drug-linker B-01, DAR 8.07 (conjugate)
heavy: B1 heavy
light: B1 light
B4: 22B6-B-04-2 (conjugate)
heavy: B1 heavy
light: B1 light

What was measured:
[1] = tested on: MDA-MB-453 cells; experiment: Cell affinity of anti-human HER3 antibodies and ADCs by flow cytometry; assay type: binding
Description: (§1) 1. Detection of Cell Affinity of Anti-Human HER3 Antibodies and their Drug Conjugates
(§2) The affinity of anti-human HER3 ADC to MDA-MB-453, NCI-H358, KPL-4, and A431 cells was detected by flow cytometry (Beckman, model Cytoflex).
(§3) Adherent MDA-MB-453, NCI-H358, KPL-4, A431 cells were digested with Tryple (manufacturer: Gibco) solution, counted, and an appropriate amount of the cells were taken, washed twice with 1×PBS, resuspended in 1% BSA in PBS solution, and then transferred to a 96-well sharp-bottom plate, 50 μl per well; candidate antibodies and drug conjugates thereof were diluted with 1% BSA in PBS solution by 3-fold or 2.5-fold serial dilution starting from 5 μg/mL, and then 50 μl of the diluted antibody or antibody-drug conjugate was added to the sharp-bottom plate containing the cells, and incubation was carried out at 4° C. for 40 minutes; the cells were washed twice with PBS, then added with 50 μl of diluted secondary antibody to each well, mixed, and incubated at 4° C. for 30 minutes; the cells were washed with PBS twice, then resuspended in 400 μl of PBS and detected by flow cytometry. Data processing: the average fluorescence signal values were exported, and then input into GraphPad Prism 6 software to calculate EC50. The results were shown in Table 32 and FIGS. 1A, 1B, 1C, and 1D. […] Moreover, when the naked antibody was formed into ADC through conjugation, the affinity to cells was less affected, and the affinity of 22B6 formed into ADC by conjugation was still the highest.

[2] = tested on: MDA-MB-453 cells; experiment: Cell affinity of anti-human HER3 antibody and its drug conjugates by flow cytometry (second test, Table 37); assay type: binding
Procedure: 8. Detection of Cell Affinity of Anti-Human HER3 Antibody and its Drug Conjugates
The affinity of anti-human HER3 ADC to MDA-MB-453 cells was detected by flow cytometry (Beckman, model Cytoflex).
Adherent MDA-MB-453 cells were digested with Tryple (manufacturer: Gibco) solution, counted, and an appropriate amount of the cells were taken, washed twice with 1×PBS, resuspended in 1% BSA solution, and then transferred to a 96-well sharp-bottom plate, 50 μl per well; candidate antibodies and drug conjugates thereof were diluted with 1% BSA by 3-fold serial dilution starting from 15 μg/mL, and then 50 μl of the diluted antibody or antibody-drug conjugate was added to the sharp-bottom plate containing the cells, and incubation was carried out at 4° C. for 40 minutes; the cells were washed twice with PBS, then added with 50 μl of diluted secondary antibody to each well, mixed, and incubated at 4° C. for 30 minutes; the cells were washed with PBS twice, then resuspended in 200 μl of PBS and detected by flow cytometry. Data processing: the average fluorescence signal values were exported, and then input into GraphPad Prism 6 software to calculate EC50.

[3] = tested on: MDA-MB-453 cells; experiment: Endocytosis effects of anti-human HER3 antibody and ADC (pHrodo, flow cytometry); assay type: cell-based; conditions: for EC50 endocytosis effects: MDA-MB-453 cells, pHrodo, 24 hours
Procedure: (§4) 9. Detection of Endocytosis Effects of Anti-Human HER3 Antibody Conjugates
The endocytosis effects of anti-human HER3 ADC in MDA-MB-453 cells were detected by flow cytometry (Beckman, model Cytoflex).
(§5) Adherent cells were digested with Trypsin-EDTA (0.25% Shanghai Basal Media Technologies) solution, counted, and adjusted the cell concentration to 1×10^5/ml with complete culture medium, then 100 μl of the cell suspension was added to the 96-well plate (the cell number is 1× 10^4/well), the 96-well plate was incubated in constant temperature CO2 incubator at 37° C. for 24 hours. Then took out the 96-well plate, discarded the medium, and added 50 μl of fresh complete culture medium to each well, the bi-specific antibody and control antibody were diluted with complete culture medium by serial dilution, the final concentrations were 0.55, 1.64, 4.94, 14.81, 44.44, 133.33, 400, 1200 ng/ml, 8 concentrations in total; PHrodo solution (Thermo) was diluted with complete culture medium to 12 μg/ml (the final concentration of PHrodo is 3 μg/ml); the serial diluted antibody candidates and diluted PHrodo solution were 1:1 mixed (30 μl 30 μl), incubated at room temperature in dark for 30 minutes; add 50 μl antibody candidate and PHrodo solution mixture to 96-well bplace, cultured at 37° C., 5% CO2 for 24 hours; took out the 96-well plate, discarded medium, washed once with sterile PBS, then cells were digested with 100 μl/well Trypsin-EDTA (0.25%), neutralized with 100 μl complete culture medium; then cells were separated by piping up and down and detected by flow cytometry. Data processing: the average fluorescence signal values were exported, and then input into GraphPad Prism 6 software to calculate EC50.

[4] = tested on: HCC1569 cells; experiment: as above; assay type: cell-based; conditions: 24 hours
Procedure: as §4, §5

[5] = tested on: A431 cells; experiment: Cell affinity of anti-human HER3 antibodies and ADCs by flow cytometry; assay type: binding; conditions: Table 32
Description: as §1, §2, §3

[6] = tested on: KPL-4 cells; experiment: as above; assay type: binding; conditions: Table 32
Description: as §1, §2, §3

[7] = tested on: NCI-H358 cells; experiment: as above; assay type: binding; conditions: Table 32
Description: as §1, §2, §3

[8] = tested on: HEK293T-h HER3 cells; experiment: In vitro cytotoxicity of anti-human HER3 ADCs (CCK8, 6 days); assay type: cell-based; conditions: result in words; Table 33, FIGS. 2A-2C
Description: 2. In Vitro Cytotoxicity of Anti-Human HER3 Antibody-Drug Conjugates

[9] = tested on: NCI-H358 non-small cell lung cancer xenograft model; experiment: In vivo drug efficacy in NCI-H358 CDX model; design: species or system female BALB/c-nu mice; conditions: 1 mg/kg, 3 administrations, Day 32; for T/C / TGI / Tumor volume (x ± SEM): tail vein injection; for tumor growth inhibition rate (TGI): tail vein
Procedure: 5. Detection of In Vivo Drug Efficacy of Anti-Human HER3 Antibody-Drug Conjugates in H358 Model
NCI-H358 cells were cultured at 37° C., 5% CO2 in RPMI1640 medium containing 10% fetal bovine serum. The NCI-H358 cells in the exponential growth phase were collected, resuspended in PBS to an appropriate concentration, and inoculated subcutaneously in female BALB/c-nu mice to establish a non-small cell lung cancer model. When the average volume of the tumor was about 130 to 150 mm^3, the animals were randomly divided into 11 groups according to tumor size, including: vehicle control group (i.e., negative control group), hIgG1-A-01 1 mg/kg group, U1-59-A-01 1 mg/kg group, ADC 22B6-A-01 1 mg/kg group, hIgG1-B-01 1 mg/kg group, ADC 22B6-B-01 1 mg/kg group, hIgG1-A-07-A 1 mg/kg group, ADC 22B6-A-07-A-1 1 mg/kg and 3 mg/kg groups, hIgG1-B-03-1 1 mg/kg group, ADC 22B6-B-03-1 1 mg/kg group. All animals were administered via injection through tail vein on Day 0, Day 1, Day 4 and Day 10, 3 times in total. After administration, the tumor diameter was measured twice a week with a vernier caliper, and the tumor volume was calculated according to the following formula: V=0.5 a×b^2, wherein a and b represented the long and short diameters of the tumor, respectively, and the death of animals was observed and recorded every day.
The following formula was used to calculate the tumor growth inhibition rate TGI (%), which was used to evaluate the tumor inhibitory efficacy:
[formula] • wherein, • VTend represented a mean value of tumor volume at the end of the experiment in a treatment group • VTstart represented a mean value of tumor volume at the beginning of the administration in a treatment group • VCend represented a mean value of tumor volume at the end of the experiment in the negative control group • VCstart represented a mean value of tumor volume at the beginning of the administration in the negative control group

[10] = tested on: MDA-MB-453 cells; experiment: In vitro cytotoxicity of anti-human HER3 ADCs (second test, Table 39); assay type: cell-based
Description: 10. In Vitro Cytotoxicity of Anti-Human HER3 Antibody-Drug Conjugates

Molecule	EC50 cell affinity ([1]; MDA-MB-453 cells, flow cytometry, Table 32)	affinity to cells ([1]; result in words, MDA-MB-453, NCI-H358, KPL-4, A431 cells, compared with U1-59 control)	EC50 cell affinity [2]	EC50 endocytosis effects [3]	endocytosis effects ([3]; result in words, MDA-MB-453 and HCC1569 cells (FIGS. 10 and 11))	EC50 endocytosis effects [4]	EC50 cell affinity [5]	EC50 cell affinity [6]	EC50 cell affinity [7]	target-specific killing effect [8]	T/C [9]	TGI [9]	Tumor volume (x ± SEM) [9]	tumor growth inhibition rate (TGI) [9]	IC50 ([10]; MDA-MB-453 cells, 6 days, CCK8, Table 39)	killing effects in MDA-MB-453 cells ([10]; result in words)
B1	39.19 ng/mL	significantly higher than that of the naked control antibody U1-59	85.39 ng/mL	9.98 ng/mL	better or not worse than the control antibody U1-59 and its conjugated ADC	28.77 ng/mL	–	–	–	–	–	–	–	–	–	–
B2	–	–	–	–	–	–	30.74 ng/mL	38.68 ng/mL	44.55 ng/mL	target-specific killing effect	40.70%	79.80%	213.68 ± 24.79 mm^3	79.80%	–	–
B3	–	–	–	–	–	–	32.78 ng/mL	51.9 ng/mL	29.79 ng/mL	–	52.02%	64.68%	271.94 ± 60.53 mm^3	64.68%	–	–
B4	–	–	194.9 ng/mL	7.76 ng/mL	–	20.43 ng/mL	–	–	–	–	–	–	–	–	0.07 nM	significant killing effects
